{"source": "the supplement of paper PMC3334620", "note": "The full ranking holds about 33,000 sequences; the median of “E-score (-0.5 to 0.5)” is about -0.04, and the highest 2% start at about 0.36. This is one part of the list."}
{"target": "T1, Hmlalpha2 (UniProt P0CY09)", "T1 sequence": "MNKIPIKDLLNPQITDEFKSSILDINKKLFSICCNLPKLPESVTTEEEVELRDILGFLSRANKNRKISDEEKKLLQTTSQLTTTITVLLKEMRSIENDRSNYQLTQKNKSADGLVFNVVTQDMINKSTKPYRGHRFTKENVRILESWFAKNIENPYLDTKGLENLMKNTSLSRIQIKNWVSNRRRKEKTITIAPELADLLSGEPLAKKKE", "test": "PBM E-score (8-mer binding enrichment) (E-score (-0.5 to 0.5)); higher = stronger / more preferred TF binding; most listed sequences are background and not binding sites", "conditions": "protein concentration: 200 nM; construct: GST-full length", "in_short": "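The E-score, a modified Wilcoxon-Mann-Whitney statistic, was computed by the Universal PBM Analysis Suite for every ungapped eight-base word pooled with its reverse complement. Scans behind it were normalised with masliner after bound GST-tagged yeast transcription factors were detected with fluorescent anti-GST. The proteins, at about 100-200 nM, had been applied to universal all-10-mer Agilent arrays made double-stranded by primer extension.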"}
{"sequence": "GATCGCCA", "PBM E-score": -0.172}
{"sequence": "TGTCGGAA", "PBM E-score": -0.00095}
{"sequence": "GACCGGAA", "PBM E-score": -0.179}
{"sequence": "CATCCATG", "PBM E-score": 0.154}
{"sequence": "GGGAAACA", "PBM E-score": 0.0668}
{"sequence": "CCGAACGA", "PBM E-score": -0.153}
{"sequence": "AGCCCGCG", "PBM E-score": -0.25}
{"sequence": "ATTTTTTA", "PBM E-score": 0.231}
{"sequence": "AATGTATG", "PBM E-score": 0.235}
{"sequence": "ACCCGTCT", "PBM E-score": -0.0615}
{"sequence": "TACTAAAA", "PBM E-score": 0.0793}
{"sequence": "TCCTCACA", "PBM E-score": 0.0414}
{"sequence": "ACGGAGAG", "PBM E-score": -0.0706}
{"sequence": "GAGAGTGA", "PBM E-score": -0.212}
{"sequence": "AAATGTCA", "PBM E-score": 0.148}
{"sequence": "CGGAATAC", "PBM E-score": 0.292}
{"sequence": "ACACTCTA", "PBM E-score": 0.199}
{"sequence": "AGGAAGAG", "PBM E-score": -0.214}
{"sequence": "CATCCTAG", "PBM E-score": -0.208}
{"sequence": "AGGTCTCA", "PBM E-score": -0.0741}
{"sequence": "ATCGTACA", "PBM E-score": 0.21}
{"sequence": "ACTAGTAG", "PBM E-score": 0.108}
{"sequence": "AGAACGAT", "PBM E-score": 0.025}
{"sequence": "CTTCGACA", "PBM E-score": 0.213}
{"sequence": "ATGCGCAC", "PBM E-score": -0.0855}
{"sequence": "GACACCTC", "PBM E-score": -0.112}
{"sequence": "CACTCTTA", "PBM E-score": 0.071}
{"sequence": "ACTCCAGA", "PBM E-score": -0.106}
{"sequence": "GCGTGTCA", "PBM E-score": 0.382}
{"sequence": "GCCCGGGC", "PBM E-score": -0.059}
{"sequence": "CTTGAAAC", "PBM E-score": -0.111}
{"sequence": "AACACCCG", "PBM E-score": 0.112}
{"sequence": "AATTTTTA", "PBM E-score": 0.162}
{"sequence": "AATTAGGA", "PBM E-score": -0.0899}
{"sequence": "CCCGCAAG", "PBM E-score": -0.358}
{"sequence": "ACACCGCA", "PBM E-score": -0.1}
{"sequence": "TGAGTGCA", "PBM E-score": -0.0859}
{"sequence": "AAGAAGGA", "PBM E-score": -0.0215}
{"sequence": "AAGGATAT", "PBM E-score": 0.102}
{"sequence": "GAGTCAAC", "PBM E-score": 0.0855}
{"sequence": "ATTAAGGG", "PBM E-score": -0.0683}
{"sequence": "CGTTTTTC", "PBM E-score": -0.0177}
{"sequence": "CCGCAGAC", "PBM E-score": -0.174}
{"sequence": "GACACCGC", "PBM E-score": -0.118}
{"sequence": "ATAAGTAC", "PBM E-score": 0.125}
{"sequence": "ACAGAGGC", "PBM E-score": -0.088}
{"sequence": "CCAAGGCG", "PBM E-score": -0.124}
{"sequence": "AAGATGAC", "PBM E-score": 0.0944}
{"sequence": "CAATCACC", "PBM E-score": -0.045}
{"sequence": "GGAAGTGA", "PBM E-score": 0.0916}
{"sequence": "AGATTGAG", "PBM E-score": 0.0255}
{"sequence": "CAAAACGC", "PBM E-score": 0.122}
{"sequence": "CGCGCGCC", "PBM E-score": -0.0121}
{"sequence": "ACTAAATC", "PBM E-score": -0.0181}
{"sequence": "AAAGATGA", "PBM E-score": 0.187}
{"sequence": "CAGTATAG", "PBM E-score": -0.0484}
{"sequence": "CACACGGC", "PBM E-score": 0.116}
{"sequence": "GCAATTGA", "PBM E-score": 0.138}
{"sequence": "AATGAACT", "PBM E-score": 0.0494}
{"sequence": "TCATCCAA", "PBM E-score": -0.0472}
{"sequence": "GCGGGAGA", "PBM E-score": -0.354}
{"sequence": "CTGTTAGC", "PBM E-score": -0.243}
{"sequence": "CGCGGACA", "PBM E-score": 0.131}
{"sequence": "CGTGTTTA", "PBM E-score": 0.436}
{"sequence": "GCCAAGGA", "PBM E-score": -0.128}
{"sequence": "AACGGGGA", "PBM E-score": -0.064}
{"sequence": "CGCTTTAC", "PBM E-score": 0.321}
{"sequence": "GCCTGCGA", "PBM E-score": -0.197}
{"sequence": "AATTTAAA", "PBM E-score": 0.083}
{"sequence": "GCTTGGAA", "PBM E-score": -0.157}
{"sequence": "AGGTAATG", "PBM E-score": 0.226}
{"sequence": "CCTGGCCG", "PBM E-score": -0.146}
{"sequence": "ACACTTCG", "PBM E-score": 0.071}
{"sequence": "CACAGAGG", "PBM E-score": 0.0512}
{"sequence": "GGACCTAC", "PBM E-score": -0.0877}
{"sequence": "CCTATGCA", "PBM E-score": 0.0135}
{"sequence": "AAATTTCT", "PBM E-score": 0.0893}
{"sequence": "ACGACCAA", "PBM E-score": 0.0834}
{"sequence": "CTCGTGAC", "PBM E-score": -0.0519}
{"sequence": "CAGAAAAA", "PBM E-score": 0.0571}
{"sequence": "CACCTACC", "PBM E-score": -0.139}
{"sequence": "ACACCGCT", "PBM E-score": 0.147}
{"sequence": "CGGGTTTA", "PBM E-score": -0.0628}
{"sequence": "AGCGGGGA", "PBM E-score": -0.24}
{"sequence": "GGGCTAAA", "PBM E-score": -0.168}
{"sequence": "ATCTCGAG", "PBM E-score": -0.137}
{"sequence": "CATTCTAG", "PBM E-score": 0.0286}
{"sequence": "GCTAGGAA", "PBM E-score": -0.161}
{"sequence": "AGTGCTCG", "PBM E-score": -0.187}
{"sequence": "CCTACGCG", "PBM E-score": 0.107}
{"sequence": "CCAACAGA", "PBM E-score": -0.17}
{"sequence": "AGAGGCAA", "PBM E-score": -0.122}
{"sequence": "GGAGGCCA", "PBM E-score": -0.368}
{"sequence": "GAGCAATC", "PBM E-score": 0.00584}
{"sequence": "GCCCCATA", "PBM E-score": -0.309}
{"sequence": "ACCTTCTA", "PBM E-score": -0.00972}
{"sequence": "ACACGTAC", "PBM E-score": 0.347}
{"sequence": "AGAGGCGA", "PBM E-score": -0.226}
{"sequence": "CAACGGTC", "PBM E-score": -0.0538}
{"sequence": "AGCGATAA", "PBM E-score": -0.187}
{"sequence": "GGGTGGTA", "PBM E-score": -0.159}
{"sequence": "CGTTGAAC", "PBM E-score": 0.111}
{"sequence": "ACAGGCCT", "PBM E-score": 0.0133}
{"sequence": "CGTAACAC", "PBM E-score": 0.325}
{"sequence": "CTTAGAGC", "PBM E-score": -0.105}
{"sequence": "AGCTTCCA", "PBM E-score": -0.238}
{"sequence": "ACAGAGGT", "PBM E-score": 0.133}
{"sequence": "CCAACTTC", "PBM E-score": -0.151}
{"sequence": "GACCAGTA", "PBM E-score": -0.11}
{"sequence": "ACCCCCAG", "PBM E-score": -0.321}
{"sequence": "GTGAATTA", "PBM E-score": 0.284}
{"sequence": "GCTTCCGA", "PBM E-score": 0.0444}
{"sequence": "CTCTGTAA", "PBM E-score": 0.195}
{"sequence": "ATATGGTG", "PBM E-score": 0.0211}
{"sequence": "ATCTGCCG", "PBM E-score": -0.057}
{"sequence": "CATTCGGA", "PBM E-score": 0.108}
{"sequence": "CCATCCAA", "PBM E-score": 0.0276}
{"sequence": "CGGGGTAA", "PBM E-score": -0.0141}
{"sequence": "ACAATTTC", "PBM E-score": -0.0632}
{"sequence": "ACCTGGTC", "PBM E-score": -0.0932}
{"sequence": "CGTGCTAC", "PBM E-score": -0.058}
{"sequence": "CGTTGTTC", "PBM E-score": 0.0877}
{"sequence": "CAAGTAAA", "PBM E-score": 0.316}
{"sequence": "CTGGTAGA", "PBM E-score": -0.0921}
{"sequence": "CCACACGC", "PBM E-score": 0.142}
{"sequence": "GACCACGC", "PBM E-score": -0.0445}
{"sequence": "TCTCGCCA", "PBM E-score": -0.219}
{"sequence": "GACAGCTA", "PBM E-score": -0.0274}
{"sequence": "ATGAGTCG", "PBM E-score": -0.0768}
{"sequence": "AAACCAAG", "PBM E-score": 0.157}
{"sequence": "CCCGCGGA", "PBM E-score": -0.241}
{"sequence": "ATTCTGGG", "PBM E-score": -0.173}
{"sequence": "CGCATAAG", "PBM E-score": -0.0319}
{"sequence": "AAGATACG", "PBM E-score": 0.116}
{"sequence": "AGTTGCTG", "PBM E-score": -0.0335}
{"sequence": "CATACTCC", "PBM E-score": 0.0887}
{"sequence": "GCTGAAAC", "PBM E-score": 0.12}
{"sequence": "ACGGGGCA", "PBM E-score": -0.218}
{"sequence": "AGACTCGC", "PBM E-score": -0.19}
{"sequence": "AATGCTGG", "PBM E-score": 0.0702}
{"sequence": "CATATTAC", "PBM E-score": 0.303}
{"sequence": "AATTACTA", "PBM E-score": 0.257}
{"sequence": "AATTGCTA", "PBM E-score": -0.0161}
{"sequence": "CTCCTCCC", "PBM E-score": -0.306}
{"sequence": "CCTTACGC", "PBM E-score": 0.188}
{"sequence": "ACCCCCGT", "PBM E-score": -0.277}
{"sequence": "CGATACCG", "PBM E-score": -0.263}
{"sequence": "AAGTAGGA", "PBM E-score": 0.145}
{"sequence": "ACAGGTTC", "PBM E-score": -0.0405}
{"sequence": "CCCATCGA", "PBM E-score": -0.126}
{"sequence": "CGATATGA", "PBM E-score": -0.152}
{"sequence": "GTAAGTGA", "PBM E-score": 0.147}
{"sequence": "ACTTGCTA", "PBM E-score": 0.13}
{"sequence": "CATTAAGA", "PBM E-score": 0.0351}
{"sequence": "GGGCTCTA", "PBM E-score": -0.128}
{"sequence": "ACATAAAG", "PBM E-score": 0.254}
{"sequence": "AGCAGCCC", "PBM E-score": -0.14}
{"sequence": "TATGCAGA", "PBM E-score": -0.0326}
{"sequence": "ATGCACAG", "PBM E-score": -0.0148}
{"sequence": "CAGTCAAC", "PBM E-score": -0.0179}
{"sequence": "AAAACAGG", "PBM E-score": -0.0074}
{"sequence": "AGCCTGAG", "PBM E-score": -0.242}
{"sequence": "CAGTTTTC", "PBM E-score": -0.053}
{"sequence": "AATGTCAA", "PBM E-score": 0.182}
{"sequence": "AGACAACC", "PBM E-score": 0.0887}
{"sequence": "GGTCGGAA", "PBM E-score": -0.0178}
{"sequence": "AGGACGTA", "PBM E-score": 0.0452}
{"sequence": "ACCAGGTC", "PBM E-score": -0.168}
{"sequence": "AGACGAAC", "PBM E-score": 0.094}
{"sequence": "CTCTACAC", "PBM E-score": 0.368}
{"sequence": "ATCACACC", "PBM E-score": -0.0635}
{"sequence": "CATGTGGA", "PBM E-score": 0.144}
